The campaign covered roughly 340,000 compounds. About 12,000 (3.5%) were called active. Inconclusive results, whose numbers are uncertain, are shown with a selection of clear calls. The call rests on the fitted dose curve; in most records, active means well fitted inhibition curve with a large enough effect; inconclusive means small, poorly fitted or top-dose-only effect, or another doubt; inactive means no such curve, though single readings can be large or run the other way. No potency is given beside an inconclusive call; the fits are too rough.
Assay: qHTS Assay for Inhibitors of Hepatitis C Virus (HCV)
Conditions: Huh7.5.1 HCVcc-Cre (HCVcc is cell-culture hepatitis C virus) infection, luciferase reporter, 44 h; activity change, negative = inhibition: at 41.8 µM (top of the series) unless noted
How it was run: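 Infectious HCV cell culture screen: compound-treated cells (1,000/well, pre-plated 4 h) are infected with HCVcc-Cre at roughly 0.5 moi and grown 44 h. Infection is quantified by luciferase signal after 15 min substrate incubation at room temperature.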
On the % scale 0 is the no-effect control and ±100 the full control effect; potency means the concentration at half of the fitted maximal effect; tags describe the fitted curve by direction and shape.

| SMILES | Potency | activity change, negative = inhibition |
| --- | --- | --- |
| O=C(NCCc1c[nH]c2ccccc12)C(=O)NCC1OCCCN1S(=O)(=O)c1cccs1 (centres undefined) | inconclusive [inhibitor, single point] | – |
| CSc1nc(N)nc(SCCS(=O)(=O)c2ccc(Cl)cc2)c1C#N | active: 10 µM | – |
| Cc1cc(C(=O)CSc2nnc(-c3ccc(F)cc3)o2)c(C)n1CC1COc2ccccc2O1 (centres undefined) | – | inactive: -19.2% |
| N=c1c(S(=O)(=O)c2ccc(Cl)cc2)cc2c(=O)n3ccccc3nc2n1C1CCCCC1 | inconclusive [inhibitor, single point] | – |
| O=C(CSc1ncnc2c1cnn2-c1ccccc1)NCC1CCCO1 (centres undefined) | inconclusive [inhibitor, partial curve] | – |
| Cc1cc(C)nc(NC(=O)c2ccc(C)c([N+](=O)[O-])c2)n1 | inconclusive [inhibitor, single point] | – |
| O=c1c2cccnc2nc2n1CCCCC2 | – | inactive: 8.46% |
| COc1ccccc1OCCN1CSC(=S)N(C)C1 | – | inactive: 19.9% |
| Clc1cc(-c2ccccc2)nc(-c2ccccc2)n1 | inconclusive [inhibitor, single point] | – |
| O=C(O)c1cc(-c2ccc(-c3c(-c4ccc5c(c4)OCO5)noc3-c3ccsc3)cc2)nc2ccccc12 | inconclusive [inhibitor, single point] | – |
| OCCOCCn1c(CCNc2nc(-c3ccc(Cl)cc3)cs2)nc2cc(Cl)c(Cl)cc21 | inconclusive [inhibitor, single point] | – |
| CCOC(=O)c1ccc(NC(=S)N(CCN2CCCCCC2)Cc2ccco2)cc1 | inconclusive [inhibitor, full curve] | – |
| COC(=O)c1ccc(NC(=O)c2ccccc2NS(=O)(=O)c2ccccc2)cc1 | inconclusive [inhibitor, single point] | – |
| CCN=C1S/C(=C\c2ccc(N3CCOCC3)cc2C)C(=O)N1CC | – | inactive: 34.2% |
| O=C(c1cccnc1)N1CCN(Cc2ccc3ccccc3c2)CC1 | inconclusive [inhibitor, single point] | – |
| O=C(Cc1cccc2ccccc12)N/N=C1\CCCc2ccccc21 | inconclusive [inhibitor, partial curve] | – |
| O=C1c2ccccc2C(=O)N1CCOc1ccccc1Cl | – | inactive: 15.6% |
| Cc1nc(NCCc2ccc(F)cc2)c(C#N)c(C)c1[N+](=O)[O-] | inconclusive [inhibitor, single point] | – |
| Cc1ccc(-c2nn(C)c(=O)c3ccccc23)cc1CNC(=O)c1ccccc1 | – | inactive: -7.4% |
| CN(C)/C=C1\C(=O)ON=C1c1ccccc1 | – | inactive: 18.2% |
| O=C(CCCn1c(=O)c2cccn2c2cccnc21)N1CCN(c2ccccc2F)CC1 | inconclusive [inhibitor, single point] | – |
| Cn1c(SCC(=O)N2CCN(c3cccc(Cl)c3)CC2)nnc1-c1ccncc1 | inconclusive [inhibitor, single point] | – |

| SMILES | Potency | activity change, negative = inhibition |
| --- | --- | --- |
| CCOC(=O)N1CCC(NC(=O)C2CCCN(Cc3nc(-c4cccc(C)c4)oc3C)C2)CC1 (centres undefined) | inconclusive [inhibitor, full curve] | – |
| COc1cc2c(cc1OC)C(c1cccc([N+](=O)[O-])c1)N(C(=O)c1ccc(F)cc1)CC2 (centres undefined) | inconclusive [inhibitor, partial curve, poor fit] | – |
| O=C(NC1CCCCC1)c1csnn1 | – | inactive: 24.2% |
| O=C1Nc2ccccc2CCC1Sc1nnc(-c2ccc(Cl)cc2)s1 (centres undefined) | inconclusive [inhibitor, single point] | – |
| Cc1c(C)c2ccc(OC(C)C(=O)NCCc3c[nH]c4ccccc34)cc2oc1=O (centres undefined) | inconclusive [inhibitor, single point] | – |
| CCCCNC(=S)N/N=C/c1cccc(OCC)c1O | inconclusive [inhibitor, partial curve] | – |
| O=[N+]([O-])c1ccc(C2[C@H]3C(c4ccccc4)=NC4(CCCCC4)N23)cc1 (some centres undefined) | inconclusive [inhibitor, single point] | – |
| Fc1ccc2nc(Nc3nc4cc5c(cc4s3)OCCO5)sc2c1 | inconclusive [inhibitor, single point] | – |
| Cc1cc2occ(CC(=O)N(CC(C)C)c3c(N)n(Cc4ccccc4)c(=O)[nH]c3=O)c2cc1C | – | inactive: -9.73% |
| O=C(c1ccccc1Cl)N(C(=O)c1ccccc1Cl)c1nccc(-c2cccs2)n1 | inconclusive [inhibitor, single point] | – |
| CCN(CC)S(=O)(=O)c1cc(NC(=O)c2cc(-c3ccccn3)nc3ccccc23)ccc1C | active: 14.1 µM | – |
| CC(C)c1ccc(NC(=O)N2CCC(c3nc4ccccc4o3)CC2)cc1 | inconclusive [inhibitor, partial curve] | – |
| Cc1ccc(NC(=O)COc2cccc3ccccc23)c(O)c1 | inconclusive [inhibitor, partial curve] | – |
| CC(C(=O)c1ccccc1)C(O)c1ccccn1 (centres undefined) | – | inactive: -12.5% |
| O=C1/C(=C/c2ccccc2)CCCc2ccccc21 | inconclusive [inhibitor, full curve, poor fit] | – |
| CCOc1ccccc1N(CC(=O)Nc1ccc(S(=O)(=O)N2CCCC2)cc1)S(C)(=O)=O | – | inactive: 16.6% |
| COc1cc(CCCN2C(=S)NC[C@@H]2Cc2ccccc2)cc(OC)c1OC | inconclusive [inhibitor, partial curve] | – |
| COc1cc(OC)c(OC)cc1CCC(C)NC(=O)Cc1ccccc1 (centres undefined) | inconclusive [inhibitor, partial curve] | – |
| O=C1/C(=C\c2cc(Cl)c(O)c(Cl)c2)SC(=S)N1Cc1ccccc1 | inconclusive [inhibitor, single point] | – |
| CCCN1Cc2cccc(C(=O)N3CCN(c4cc(Cl)ccc4C)CC3)c2C1=O | inconclusive [inhibitor, single point] | – |
| C/C(=N\Nc1nncc2ccccc12)c1ccc(O)cc1 | active: 7.08 µM | – |
| CCOc1ccc(CCNC(=O)C(CCC(N)=O)NC(=O)OCc2ccccc2)cc1OCC (centres undefined) | – | inactive: -11.9% |

From PubChem BioAssay AID651820 (National Center for Advancing Translational Sciences (NCATS), 2012)
